Hit rate of the full screen: of about 46,000 compounds, about 60 (0.1%) were called active. Not shown: some 3% with an inconclusive outcome. Calls follow the shape of the dose curve; as a rule, active = well fitted inhibition curve with a large enough effect; inconclusive = small, poorly fitted or top-dose-only effect; inactive = no such curve, though single readings can be large or run the other way. The list shows a part of the results.
Assay: Primary qHTS assay for Inhibitors of ovarian cancer metastasis using an organotypic tumor microenvironment (TME) model. Also: nearly all actives have a fitted effect of over 65% in size.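 As to activity change, negative = inhibition: plate controls were DMSO wells for no effect and tomatine positive control wells for full effect.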
Conditions: SKOV3ip1-GFP adhesion/invasion on 3D omental model, fluorescence; series mostly up to 45.8 µM; activity change, negative = inhibition: at the top concentration
Outline: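 qHTS, 4-pt dose (0.36-46 umol/L); SKOV3ip1-GFP, 1,200 cells/well, no FBS; primary omental fibroblast/mesothelial co-culture 48 h pre-grown; 2 h RT + 16 h 37 C; PBS wash, 4% PFA; GFP count 488/509 nm.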

outcome, inactive:
Clc1ccc(-c2csc(=Nc3ccccc3)n2Cc2ccc3c(c2)OCO3)cc1, COc1ccc(-c2cc3nc(C)c(CCC(=O)N4CCN(c5ccccc5)CC4)c(C)n3n2)c(OC)c1, Cc1cc(C)c2nc(NC(=O)c3ccc(S(=O)(=O)N4CCCC4)cc3)sc2c1, Cc1ccc(C)c(N2CCN(C(=O)Cn3c(=O)c4cccn4c4ccc(F)cc43)CC2)c1, COc1ccc(CCCc2nnc(SCC(=O)Nc3cc(F)ccc3C)o2)cc1, COc1ccc(NC(=O)CSCc2cc(=O)c3cc(C)ccc3[nH]2)cc1, CCOc1ccc(CNC(=O)c2ccc3c(Cl)c4c(nc3c2)CCCC4)cc1, CCn1c(=O)c2cc(C(=O)Nc3cccc(C(F)(F)F)c3)sc2c2ccccc21, COc1ccc(C(=O)Nc2ccc(-c3nc4ncccc4o3)cc2C)cc1Br, Cc1ccc2nc(NCc3ccccc3)c3nncn3c2c1, Cc1ccc(CNC(=O)CSCc2ccccc2C)cc1, COc1ccc(-n2c(/C=C/c3cccc4ccccc34)nc3ccccc3c2=O)cc1OC, O=S(=O)(c1ccc(C2CCCCC2)cc1)N1CCN(c2cc(Cl)ccc2Cl)CC1, CCC(CC)C(=O)Nc1nnc(S(=O)(=O)N(C)c2cc(C)cc(C)c2)s1, Cc1cccc(CSCCNC(=O)C2CCN(S(=O)(=O)Cc3ccccc3)CC2)c1, COc1ccc(NC(=O)CC2Oc3ccc(C)cc3NC2=O)cc1Cl (configuration not stated), CCOC(=O)c1c(NC(C)=O)c2c3c(sc2n1Cc1c(C)cc(C)cc1C)CCCC3, CCOC(=O)c1cc2c(=O)n3ccccc3nc2n(Cc2ccco2)c1=NC(=O)c1ccc(C(C)(C)C)cc1, Cc1c(Cl)cccc1NC(=O)c1oc2ccc(S(=O)(=O)N3CCCCCC3)cc2c1C, COc1ccc(-c2cc(C)no2)cc1S(=O)(=O)N1CCN(c2cccc(C)c2)C(C)C1 (configuration not stated), CCN(CC)c1cc(C)c2cc(NC(=O)c3ccc(OC)c(OC)c3)ccc2n1, Cc1nc(SCC(=O)N2CCN(c3ccccc3)CC2)[nH]c(=O)c1C, COc1cccc2cc(C(=O)N3CCN(c4cc(C)ccc4C)CC3)c(=O)oc12, CCN(CC)c1ccc(NC(=O)c2c(C)nn(-c3ccc(F)cc3)c2-n2cccc2)c(C)c1, O=C(CN1C(=O)C2(SCC(=O)N2c2ccc(F)c(F)c2)c2ccccc21)NCCc1ccccc1 (configuration not stated), CCc1ccc(NC(=O)CSc2nc3nc(C)cc(C)n3n2)cc1, COc1ccc(-c2noc(N3CCC(C(=O)Nc4cccc(C)c4C)CC3)n2)cc1, CCOc1ccc(/C=C/c2nc(C#N)c(N3CCN(CC)CC3)o2)cc1, Cc1cc(F)ccc1NC(=O)c1csc2c1CCC(C)C2 (configuration not stated), Cc1ccccc1NC(=O)CSc1c(C(C)C)cnc2c1c(=O)n(C)c(=O)n2C

Activity change, negative = inhibition, inactive:
Fc1ccccc1Oc1ncnc2c1oc1ccccc12 2.05%, CCCCSc1nnc2n(-c3cccc(C)c3)c(=O)c3c4c(sc3n12)CCCC4 -13.6%, COc1ccc(NC(=O)COCc2cc(-c3ccco3)on2)cc1 -4.51%, CC(=O)Nc1nonc1-c1nnc(SCc2ccc(F)cc2)n1C 0.451%, Cc1c(CC(=O)NCc2ccccc2)c(=O)oc2c(C)c(O)ccc12 -3.18%, COc1cc2c(=O)c(C(=O)c3ccc(C)c(C)c3)cn(Cc3ccccc3)c2cc1OC 33.4%, Cc1ccc(NC(=O)CSCn2nnc3c(=O)[nH]c(Cc4ccc(F)cc4)nc32)c(C)c1 -0.655%, CCCCC(CC)CNC(=O)CCCc1nnc2n(CCC)c(=O)c3sccc3n12 (configuration not stated) 1.93%, CCOCCCNC(=O)Cn1nc(C)n2c(cc3cc(C)ccc32)c1=O 8.98%, Cc1coc2c1C(=O)C(=O)c1c-2ccc2c1CCCC2(C)C 7.37%, Cc1cn2cc(C(=O)N(C)CCO)cc(N[C@@H]3CCOc4cccc(C)c43)c2n1 2.99%, CCOc1cc(C2C(C(=O)OC)=C(C)NC3=C2C(=O)c2ccccc23)c(Br)cc1OC (configuration not stated) -15.5%, O=C(COc1ccccc1Cl)Nc1nc2c(s1)CCCC2 -10.1%, CCCCN(CCCNC(=O)CN1N=C(c2ccccc2)CCC1=O)c1ccccc1 19.2%, COc1cccc2cc(-c3nc(C4CCC(C(=O)O)CC4)n4ncnc(N)c34)[nH]c12 (configuration not stated) -10.7%, COc1ncnc(NS(=O)(=O)c2ccc(N)cc2)c1OC 4.57%, Fc1ccc(CNCCCSc2nnnn2-c2ccccc2)cc1 2.7%, COc1ccc(Cn2c(C(=O)O)c(CNCc3ccc(OC)cc3OC)c3ccc(C)cc32)cc1 1.16%, COc1cc(Cl)c(C)cc1NC(=O)CC1Oc2ccccc2NC1=O (configuration not stated) -17.1%, CN(C(=O)CSc1nc2ccc(NC(=O)c3cccc(F)c3)cc2s1)c1ccccc1 -13.9%, CCNC(=O)CCCN1C(=O)CCn2nc(-c3cccn3C)cc21 -4.98%, COc1ccc(NC(=O)c2c(NCc3ccc(C)o3)sc3c2CCCCC3)c(OC)c1 -10.2%, CCn1cc(C(=O)NCCc2ccc(Cl)cc2)c(=O)c2cc(S(=O)(=O)N(C)C3CCCCC3)ccc21 -16.6%, CCC(Sc1nc2nccnc2c(=O)n1Cc1ccccc1Cl)C(=O)NC1CCCCC1 (configuration not stated) 2.62%, COc1ccc2c(C)c(CCC(=O)NCc3cccc(Cl)c3)c(=O)oc2c1 3.56%, Cc1ccc(-c2csc(-c3c(N)c(C(=O)c4ccc5c(c4)OCO5)n4ccccc34)n2)cc1C -4.14%, COc1ccc(CCNC(=O)c2cc3c(=O)n4cccc(C)c4nc3n2C)cc1 1.14%, CCOc1ccc(C2C(=O)N(C3CCCCCC3)CC(=O)N2Cc2ccc(C)cc2)cc1OC (configuration not stated) -4.86%, Cc1cccc(N(CC(=O)NCCc2ccccc2)S(=O)(=O)c2ccccc2)c1C 9.2%, COc1cc2c(cc1OC)C(COc1ccc3c(C)cc(=O)oc3c1)N(C(=O)Cc1ccc(F)cc1)CC2 (configuration not stated) 0.673%, Cc1cc(C)cc(-n2ccn(CC(=O)NCCc3ccccc3)c(=O)c2=O)c1 0.239%, Cc1ccc2c(c1)N(CC(=O)Nc1ccccc1C(F)(F)F)C(=O)c1cccnc1O2 -7.42%, COc1ccc(Cn2ccnc2SCC(=O)Nc2ccc3c(c2)OCCO3)cc1 -3.68%, COc1cccc(C(=O)N(Cc2cccc(F)c2)C2CCS(=O)(=O)C2)c1 (configuration not stated) -8.73%, CCOc1ccc(N(CC(=O)NCc2ccc(OC)cc2)S(=O)(=O)c2c(C)[nH]c(=O)[nH]c2=O)cc1 -4.03%, O=C(Nc1cccc(F)c1)c1ccc2oc(=O)n(Cc3ccccc3)c2c1 -5.74%, COc1cccc(OC)c1C(=O)Nc1ccc(-c2nc3ncccc3o2)cc1 5.42%, Cc1ccccc1C(=O)c1ccc(Nc2ccc(Br)cc2N)cc1Cl -7.11%, Cc1ccc(CNC(=O)CCS(=O)(=O)c2cc3c4c(c2)CCN4C(=O)CC3)cc1 9.84%, CCc1ccc(NC(=O)CSc2nc3c([nH]c4ccccc43)c(=O)n2-c2ccc(C)cc2)cc1 -5.02%, Cc1ccc(C2CC(=O)n3nc(-c4ccc(Cl)cc4)nc3S2)cc1 (configuration not stated) -9.18%, Cc1ccc(Sc2ccc(N3CCC(C(=O)Nc4cc(C)cc(C)c4)CC3)nn2)cc1 -4%, COc1ccc(C(=O)CC(=O)c2ccc(C(C)(C)C)cc2)cc1 6.28%, O=C(NCc1ccccc1)c1ccc2c(c1)N(Cc1ccccc1F)C(=O)c1ccccc1S2=O (configuration not stated) 2.18%, O=C(Cn1c(=O)n(-c2ccccc2)c(=O)c2c3c(sc21)CCC3)c1ccc(F)cc1 -8.98%, Cc1c(Cl)cccc1-n1ncc(C(=O)NCCN2CCN(C)CC2)c1C1CCN(C(=O)OC(C)(C)C)CC1 -2.31%, COc1cccc(CN(C(=O)COc2ccc(Cl)c(C)c2)C2CCS(=O)(=O)C2)c1 (configuration not stated) 16%, Cc1ccccc1NC(=O)NCCc1c[nH]c2ccccc12 -2.33%, O=C(Nc1ccccc1)c1cnc(N2CCCCC2)c2ccccc12 -5.52%, COc1cccc(CN2C(=O)c3ccccc3Sc3ccc(C(=O)NCc4ccccc4)cc32)c1 27.9%, COc1ccccc1C(=O)Nc1c(C(=O)Nc2cc(Cl)ccc2C)sc2nc(C)cc(C)c12 51.7%, COc1cccc(N2CCN(C(=O)c3cnc4c(-c5ccccc5)c(C)nn4c3C)CC2)c1 4.97%, Cc1ccc(NC(=O)c2ccc(NC(=O)N3CCSc4ncccc43)cc2)c(Cl)c1 -7.68%, COc1ccc(OC)c(NC(=O)c2c(NCc3cccs3)sc3c2CCCCC3)c1 -6.01%, COc1ccc(-c2ccc(NS(=O)(=O)c3ccc(NC(C)=O)cc3)cc2)nn1 9.42%, CCc1ccccc1NC(=O)CN(C)S(=O)(=O)c1cccc2nsnc12 0.731%, COc1ccc(CCNC(=O)c2cnn(-c3ccc(F)cc3)c2C2CCN(C(=O)OC(C)(C)C)CC2)cc1OC 0.411%, COc1ccc(N2CCN(C(=O)c3cc4c(=O)n(Cc5cccnc5)ccc4nc3C)CC2)cc1 5.95%, COc1ccc(NC(=O)c2oc3ccc(S(=O)(=O)N4CCOCC4)cc3c2C)c(OC)c1 11.4%, COc1ccc(CCNC(=O)c2ccc3c(c2)CCN3S(=O)(=O)c2ccccc2)cc1 -10.7%, CCOc1cc(CNC(=O)c2cc(-c3ccccc3)n[nH]2)cc(OCC)c1OCC 2.27%, O=C(NCCc1ccc(F)cc1)C(=O)NCC(c1ccco1)S(=O)(=O)c1ccccc1 (configuration not stated) 4.1%, CC(Oc1ccccc1)C(=O)Nc1ccc(C(=O)OCc2cc(=O)n3nc(C(C)C)sc3n2)cc1 (configuration not stated) 12.6%, CCN(CC)S(=O)(=O)c1ccc(NC(=O)Cn2ncc3c([nH]c4ccccc43)c2=O)cc1 2.52%, Cc1[nH]c2ccc(C(=O)N3CCN(c4ccccc4F)CC3)cc2c1C -4.75%, Cc1cc(C)cc(OCC(=O)Nc2nc(-c3ccc(F)cc3)ns2)c1 -9.71%, CCOc1ccccc1NC(=O)CSc1nc2ccccc2nc1N1CCOCC1 -6.27%

— PubChem BioAssay AID1963576 (National Center for Advancing Translational Sciences (NCATS), 2024)
